Assay results published in the supplement of paper PMC3334620.
Over roughly 33,000 sequences, “E-score (-0.5 to 0.5)” has its median near -0.036; the highest 2% begin near 0.37. This is one part of the list.

What follows are sequences tested against T1, Yer064c (UniProt P40041) (assay: PBM E-score (8-mer binding enrichment) (E-score (-0.5 to 0.5)); higher = stronger / more preferred TF binding; most listed sequences are background and not binding sites). Conditions: protein concentration: 200 nM; construct: GST-full length.
T1 sequence: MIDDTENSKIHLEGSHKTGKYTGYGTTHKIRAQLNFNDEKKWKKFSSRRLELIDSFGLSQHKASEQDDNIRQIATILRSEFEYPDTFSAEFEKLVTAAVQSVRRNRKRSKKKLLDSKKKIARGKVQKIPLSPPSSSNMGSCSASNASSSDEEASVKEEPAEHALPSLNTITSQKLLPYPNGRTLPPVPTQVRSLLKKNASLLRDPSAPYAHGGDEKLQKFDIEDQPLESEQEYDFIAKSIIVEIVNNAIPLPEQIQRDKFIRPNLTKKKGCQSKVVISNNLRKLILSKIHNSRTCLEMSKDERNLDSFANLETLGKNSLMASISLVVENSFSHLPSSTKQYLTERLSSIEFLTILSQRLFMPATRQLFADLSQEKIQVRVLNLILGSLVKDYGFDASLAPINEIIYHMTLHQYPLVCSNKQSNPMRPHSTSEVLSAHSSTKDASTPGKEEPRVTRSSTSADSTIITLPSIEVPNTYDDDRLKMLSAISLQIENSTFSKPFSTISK
Experimental: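 Universal 'all 10-mer' protein binding microarrays (Agilent AMADID 015681) probed with GST-tagged S. cerevisiae TFs (full-length or DBD) made by in vitro transcription/translation (PURExpress), about 100-200 nM. Bound TF was detected with fluorescent anti-GST. Each ungapped 8-mer (which stands for itself and its reverse complement) is scored by the PBM enrichment score (E-score), a modified Wilcoxon-Mann-Whitney statistic from -0.5 to +0.5, computed with the Universal PBM Analysis Suite. Scale: above 0.35 generally sequence-specific binding.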

Sequence	PBM E-score
AGAGCTAG	-0.238
CTAGAGGA	-0.0154
GTAGTCAC	0.479
AAGGGGTG	0.0681
CGCTACTC	0.0673
ACTTCGAT	-0.0527
AGTGTAGC	-0.0251
GCCTGCAA	-0.234
GATCTGCC	-0.274
AAAGAATC	0.189
GAGCAGCA	-0.109
ACAGCAAT	0.00151
CCGTTCCC	-0.177
ATACGATC	-0.0601
CGATGAAC	-0.0561
ACAAGTGG	-0.202
AGGCGGTC	-0.332
CCTCGCGA	-0.0528
ATCCGTAC	0.185
ACATGCAA	0.0437
CTTAAACC	-0.0319
GACAATCA	0.317
CCTGTTTA	-0.215
CACGTGGC	-0.0849
CGAGTAAG	-0.00187

Sequence	PBM E-score
GGCCCACA	-0.0547
GGACCACC	-0.146
AGCTAGTA	-0.0613
CTTCAAAC	-0.0331
GCGATGAA	0.145
AGCTAGCT	-0.154
AGTATTTA	0.152
CTGAAACA	0.0713
ATGGTAGA	-0.0143
GAGGAGGC	-0.181
AACACGGT	0.00016
AACAAATT	0.0503
CTTTCTTC	-0.103
CGATGTAG	-0.0652
GGAACATA	-0.0975
CTAACGGA	0.0623
AGAAATAC	-0.0887
AGGATACG	-0.22
CGAATGAG	0.0829
ATTTTACG	0.00819
GGCTAAAA	0.0687
CCTCTAAC	-0.115
ACTGACAT	0.0293
ATAGATCC	-0.0966
AGACGAGA	-0.00804

Sequence	PBM E-score
GCCATGTA	-0.13
TAATAACA	-0.126
ACGATCCA	0.00078
CAGTAATC	0.219
AGACAAAG	0.0856
AACTTTAT	-0.0572
CCACTCCG	-0.301
AAGCTACG	-0.169
CTTAGTCA	0.483
AAGGTTGG	-0.124
GATTGAGA	0.266
GTATTGGA	-0.109
GCCGAAAC	-0.128
GCATCGCA	-0.454
AATTAGAT	0.129
AACGATAC	-0.131
GATAGTCC	0.296
GCAATGCC	-0.31
CCACGTAA	-0.177
GGACAAGA	-0.207
ATATTCAA	0.128
ACCGGATC	-0.284
GTCCCCCA	-0.0782
CCTAAGAA	-0.0253
TAACCCTA	-0.0391

Sequence	PBM E-score
GCGTAGCA	-0.0584
ACCGCCGT	0.0283
TAGTTTAA	0.161
AACTCATT	0.2
AGTGGCCA	-0.134
CATGCATG	-0.19
AGAATACC	-0.139
AGTACCGG	-0.0513
CTAAGTAG	0.144
CGAGACTC	0.369
GAGGTCGC	-0.2
GACCGGGC	-0.232
AATTACCA	-0.0928
GAATCGAC	0.0312
CTAACCTA	-0.0376
GAGACTGA	0.28
GCCCATAA	-0.159
CGCTTACA	0.0298
CTGTAGCC	-0.0763
TGTAGCAA	-0.0247
GCTCACCA	-0.0476
ATTATGTC	0.114
AAGCTTCC	-0.281
GGGCAGGA	-0.108
CTTGGGCA	-0.235

Sequence	PBM E-score
GCTCCCCA	-0.411
ATAGATTC	0.0929
AACGATTA	0.0935
ATCGGCGA	-0.108
ATACGTAT	0.0144
CAACATGG	-0.127
ATGGCACG	-0.358
ACCCTGCA	-0.0587
GGGACGTA	-0.15
AAAAGTGT	-0.119
ATCGAGAC	0.131
ATCGTGCA	0.0457
AGCCATAT	0.233
CTGGACTA	0.121
CAGGTTCA	-0.102
GCGATCTA	-0.0439
CGTGTGAA	0.0511
CCAAGGAG	-0.116
GTCTCCAC	0.00609
CTCTGGTC	-0.00298
AAGGCAGA	-0.133
TCCATAAA	-0.0949
CGATCCTC	-0.047
CCCTATAA	-0.134
ACGTACTC	0.146

Sequence	PBM E-score
AGATAATC	0.213
CAGCGATA	-0.181
GATCCAGA	-0.0405
CCACGCCG	0.0673
AATGGTTA	0.158
AAGATTCA	0.37
AAGACTAT	0.417
AAGGGACT	0.245
CAGCCTAA	-0.142
GACACAGA	0.00032
ACGGACAC	-0.0251
CTCCTCGA	0.0215
CTTCGCGC	-0.0112
CAACACGG	-0.0306
CCAACTAC	-0.203
CCATCGAG	-0.0169
TATTAATA	-0.219
CCGCTCAG	-0.269
GAGTGCGA	0.0474
CAACATAC	0.0294
ACTTCACA	-0.0308
CCCAACGC	-0.164
CTTAAGCC	-0.0733
CAGAGCAG	0.0208
ACAAGAAT	0.0495

Sequence	PBM E-score
AATTGTAC	0.115
ACGGCCCG	-0.113
ATGCGTTG	-0.123
ACTCTCTC	0.0916
GACTTAAA	0.325
ACTGTTTG	0.146
AGTATACA	0.0167
CTGGGAAC	-0.115
ACTTTGGA	0.173
GCATCCAC	-0.0789
GGTTTAAC	0.106
ACTGTCCG	-0.022
CGCTGAGA	0.00195
TGCGTACA	-0.0452
TACAACAA	0.109
GCCAGAAA	-0.0404
CTGTGGTA	-0.0655
AACCTTAC	0.0889
CAGCAGTC	0.283
CCATATAC	0.123
ATTGATAG	0.0531
ACACTTCT	-0.0798
